Laboratory results as given in PubChem BioAssay AID434955 (Southern Research Specialized Biocontainment Screening …, 2010).
This is one part of the list. Shown are side measurements of this screen, not its main read-out; they come without a call. Most of these compounds were active or inconclusive in the main read-out, so they are no random draw.

Assay: beta-lactam sensitization of Mtb H37Rv, H37Rv (AID 434955);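 also: growth measured after seven days incubation then overnight dye step; 0% = bacteria only wells and 100% = bacteria with antibiotic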
Conditions: M. tuberculosis H37Rv growth with meropenem, percent inhibition; measured here: primary screen without meropenem; at 25 µM

SMILES	inhibition [%]
Cc1ccccc1NS(=O)(=O)c1ccc(C)c(C(=O)N2CCOCC2)c1	-2.74
CCn1cc(CN2CCC(n3nccc3NC(=O)Cc3ccccc3)CC2)cn1	5.99
COc1ccc(Nc2nc(N3CCCCC3)nc(N3CCCCC3)n2)c(OC)c1	-2.26
Cc1ccc(/C=N/NC(=O)c2cccnc2)s1	4.58
CCOC(=O)c1sc(NC(=O)c2ccoc2C)c(C(N)=O)c1C	4.12
COC(=O)c1ccc(Oc2c(C)oc3c(CN4CCN(C)CC4)c(O)ccc3c2=O)cc1	-1
CCc1cc(CNC(=O)C2CCC(=O)N(CCc3ccc(OC)cc3)C2)on1 (configuration not stated)	-3.22
CN(c1ccc(C(=O)Nc2cccc(O)c2)cc1)S(=O)(=O)c1ccccc1	6.66
COc1cccc(/C=N/n2c(COc3ccccc3)n[nH]c2=S)c1O	-2.85
O=C(NCCCN1CCOCC1)c1ccc2c(=O)n(CCc3ccccc3)c(=O)[nH]c2c1	8.29
Cc1[nH]nc2c1C(CCc1ccccc1)C(C#N)=C(N)O2 (configuration not stated)	7.65
COc1ccc(OC)c(CCNC(=O)CS(=O)(=O)Cc2nc(-c3ccccc3C)oc2C)c1	-10.5
Cc1cccc(-n2ncc3c2CCCC3NC(=O)C2=CC(=O)CC(C)(C)O2)c1C (configuration not stated)	-0.85
O=C(CNC(=O)c1ccc(Br)cc1)NCC(=O)OCc1ccc(Cl)cc1	25.4
COc1cc2c(cc1OC)C(c1ccccc1)CC2=O (configuration not stated)	14.2
NC(=O)c1ccccc1NC(=O)c1ccoc1	-8.5
CCCC/C(=N\NC(=O)c1ccc(Br)o1)c1ccccc1	-7.29
COC(=O)C1CCN(C(=O)COC(=O)c2oc3ccc(OC)cc3c2C)CC1	-0.54
CC1CCCCN1CCCNC(=O)CN1C(=O)c2cccnc2Oc2ccccc21 (configuration not stated)	-0.24
c1ccc(C2Oc3ccccc3C3CC(c4cccs4)=NN32)cc1 (configuration not stated)	-7.12
COc1cc(Cl)ccc1OCc1cc(C(=O)NC(C)Cc2cnccn2)no1 (configuration not stated)	6.35
CSc1nc(SCC(=O)NCc2ccco2)c2c3c(sc2n1)CN(C)CC3	2.16

SMILES	inhibition [%]
CCCCSc1nnc(-c2cc(Br)ccc2N)c(=O)[nH]1	1.28
CCc1cc(=O)[nH]c(SCc2cccnc2)n1	-5.44
CCOC(=O)c1c(NC(C)=O)sc(/C(C)=N/Nc2ccc(C(=O)O)cc2)c1C	22.2
COc1ccc(C(=O)N(C)Cc2ccccn2)cc1OC1CCN(C(C)C)CC1	-1.9
Nc1n[nH]c2c1C1(CCCCC1)Cc1ccccc1-2	50.2
CC1CCCC(C)N1C(=O)CN1CCN(c2nc(-c3ccc(F)cc3)cs2)CC1 (configuration not stated)	20.9
Cc1ccc(C)c(OCCC(=O)OCC(=O)N2CCN(c3ccccc3)CC2)c1	14.1
COc1ccc(NC(=O)CSc2nc(N)c(C(=O)Nc3ccc(N(C)C)cc3)s2)cc1	15.8
O=C(c1ccc(Cl)cc1)N1CCN(C(=O)C2CCCCC2)CC1	4.49
Cc1cccc(-n2ncc3c2CCCC3NC(=O)CCCN2CCCCC2=O)c1C (configuration not stated)	-4.15
CCCOc1ccc(C(=O)N/N=C/c2ccc(-c3ccc(S(=O)(=O)Nc4ncccn4)cc3)o2)cc1	7.99
CCCCOC(=O)Sc1nc2ccccc2o1	0.14
COC(=O)c1ccc(C(=O)N2CCCC(Nc3ccc(F)c(F)c3)C2)cc1 (configuration not stated)	6.31
O=C(NCCN1C(=O)C2C3C=CC(C3)C2C1=O)N1CCOCC1 (configuration not stated)	4.88
CC1(c2cccs2)CC(c2cccs2)=C(C#N)C(=O)N1 (configuration not stated)	-7.02
Cc1[nH]c2ccccc2c1C(=O)COC(=O)Cn1c(C)nc2ccccc21	7.31
O=C(c1cccc(F)c1)N1CCN(c2cc(N3CCCCC3)c(F)cc2[N+](=O)[O-])CC1	63.5
COc1ccc(S(=O)(=O)N(CC(=O)NC2CCCC2)c2ccccc2OC)cc1	-4.51
O=S(=O)(Cc1cc(Cl)nc(-c2cccnc2)n1)c1ccccc1	6.25
Cc1ccc2nc(-c3ccncc3)cc(C(=O)N3CCOCC3)c2c1	5.53
COc1ccc(NC(C)C(=O)N/N=C/c2ccc([N+](=O)[O-])s2)cc1 (configuration not stated)	0.19
CCS(=O)(=O)n1nc(C(=O)N2CCOCC2)nc1N	-3.73

SMILES	inhibition [%]
Cc1c(C(=O)Nc2nnc(SCc3ccccc3Cl)s2)cccc1[N+](=O)[O-]	2.18
O=[N+]([O-])c1ccccc1S(=O)(=O)Nc1ccn(Cc2c(F)cccc2Cl)n1	-0.51
Cc1c([N+](=O)[O-])cc(C(=O)N2CCOCC2)cc1[N+](=O)[O-]	-1.43
Cc1ccn(CCC(=O)N2CCc3ccccc32)n1	-4.55
Cc1cccc(NC(=O)Nc2ccccc2[N+](=O)[O-])n1	-7.42
Cc1ccc(NC(=O)/C(=C/c2ccc([N+](=O)[O-])cc2)NC(=O)c2ccccc2)cc1	0.78
CCCOc1ccc(-c2nc(N3CCN(CC)CC3)c3ccccc3n2)cc1	95.1
COc1ccc(-n2c(N)cc(=O)nc2SCC(=O)N2CCN(c3ccccc3)CC2)cc1	4.25
COC(=O)/C(=C\Nc1ccc(Cl)c2ccccc12)c1ncc(C(F)(F)F)cc1Cl	29.8
CCc1ccc(C(=O)COC(=O)c2ccccc2OC)cc1	82.5
COC1(c2cc(-c3ccccc3)nc(N)n2)CCCCC1	3.13
COc1ccccc1OCc1nc(-c2ccc([N+](=O)[O-])cc2)no1	10.5
CCOC(=O)c1c(C)[nH]c(C)c1C(=O)COC(=O)c1ccc(S(=O)(=O)N(CC)CC)cc1	-5.9
O=C(/C=C(\O)c1ccc(Cl)cc1)C(=O)NNC(=O)C(O)(c1ccccc1)c1ccccc1	38.1
O=C(COc1c(Br)cc(Br)c2cccnc12)N1CCc2ccccc2C1	76.4
O=C(O)C1CCN(S(=O)(=O)Cc2ccccc2)CC1	-0.77
O=C(NCc1nnc(SCC(=O)N2CCCC2)o1)c1ccc(F)cc1	-1.8
COc1cc(OC)cc(C(=O)Nc2nnc(SCC(=O)NCc3ccco3)s2)c1	9.03
COc1ccccc1C/C(N)=N/OC(=O)COc1ccc(C)cc1C	1.5
COc1ccc(NS(=O)(=O)NC(=O)c2c[nH]c3ccccc23)cc1	13.1
O=C(CSc1ccccc1)Nc1ccc2c(c1)OCCO2	31.4
COC(=O)[C@H](CC(C)C)NC(=O)N1CCN(c2cccc(C(F)(F)F)c2)CC1	1.6

SMILES	inhibition [%]
CN(C)c1nc2ccccc2c(N)c1-c1ccccc1	4.05
COc1ccc(NC(=O)Nc2cccc(C)n2)c(OC)c1	7.92
Cc1ccccc1C1CC(c2ccc(Br)cc2)Nc2nc(N)nn21 (configuration not stated)	-2.71
CC(=O)Nc1cccc(C(=O)NC2CCCc3c2cnn3-c2cc(C)cc(C)c2)c1 (configuration not stated)	8.42
CC(C)(C)c1ccc(C(=O)Oc2ccc3c(c2)OCC3=O)cc1	18
CCOC(=O)N1CCN(S(=O)(=O)c2ccc3c4c(cccc24)C(=O)N3)CC1	3.9
COc1ccc(S(=O)(=O)N2CCN=C2SCc2cccc(C)c2)cc1	13.1
COC(=O)[C@H](CC(C)C)NC(=O)Nc1ccc2c(c1)OCCO2	-7.13
CCOC(=O)c1c(C)[nH]c(C(=O)OCc2ccccc2)c1C	10
Cc1ccccc1NC(=O)/C(C#N)=C\c1cc(C)n(-c2ccc(C(=O)O)cc2)c1C	16.3
CC(=O)C1=C(C)NC(SCC(=O)c2ccccc2)=C(C#N)C1CC(C)C (configuration not stated)	42.6
Cc1cc(SCc2cccc(C(F)(F)F)c2)nc(=O)[nH]1	-1.52
CNc1ccccc1C(=O)OC(C)C(=O)Nc1ccc(Cl)cn1 (configuration not stated)	97.7
O=C(Oc1cccc2cccnc12)c1ccc(N2C(=O)C3C4CCC(C4)C3C2=O)cc1 (configuration not stated)	99.8
Cc1cc(OCC(=O)Nc2ccc(N3CCN(C)CC3)cc2)ccc1Cl	-20
CCCCC(Sc1nc(N)c(NC(=O)c2ccco2)c(=O)[nH]1)C(=O)O (configuration not stated)	1.82
O=C(CC1SC(=O)NC1=O)Oc1ccc(/C=N/NC(=O)c2ccccc2O)cc1 (configuration not stated)	1.45
O=C(COc1ccc2ccccc2c1)N1c2ccccc2Sc2ccccc21	3.76
O=C(NC(NC(=S)Nc1c(Cl)cccc1Cl)C(Cl)(Cl)Cl)c1cccc([N+](=O)[O-])c1 (configuration not stated)	0.79
COc1cc(Br)c(CC(=O)O)cc1OC	-1.96
CCn1cc(CN2CCC(n3nccc3NC(=O)c3cccc(F)c3)CC2)cn1	-2.97
Cc1nn2c(N3CCOCC3)cc(C(C)(C)C)nc2c1-c1ccccc1	0.23

SMILES	inhibition [%]
COc1ccc(C(=O)SC2=NCCS2)cc1OC	4.48
Cc1cc(=O)n2nc(N3CCC(C(=O)NC(C)c4ccccc4)CC3)sc2n1 (configuration not stated)	-1.79
O=C(CSc1nc2c([nH]c3ccccc32)c(=O)n1-c1ccccc1F)NCC1CCCO1 (configuration not stated)	-1.74
CCc1nc(N2CCN(CC(=O)NCC3CCCO3)CC2)c(C#N)c2c1COC(C)(C)C2 (configuration not stated)	-0.97
CN(C(=O)COc1ccc(Cl)cc1Br)C1CCCCC1	-2.68
CCCCCc1ccc(-c2ccc(/C=C/C(N)=O)cc2)nc1	2.44
CC(C)Cc1nnc(NC(=O)CSc2nc(O)c(-c3ccccc3)c(=O)[nH]2)s1	36.7
COc1ccc(OC)c(C(=O)c2oc3ccccc3c2NC(C)=O)c1	-10.6
O=C(CSc1nnc2n(C3CCCC3)c(=O)c3ccccc3n12)N1CCCCCC1	-5.42
c1ccc(-c2nc(NC3CC3)nc(-n3ccnc3)n2)cc1	3.92
Cc1cc(N(CN2CCCC2=O)C(=O)c2ccccc2)no1	3.03
CCOc1ccc(C2C(C(=O)Nc3ccc(F)cc3)=C(C)Nc3nc(CCCO)nn32)cc1 (configuration not stated)	-5.73
O=C(CC1Oc2ccc(Cl)cc2NC1=O)NC1CCCCCC1 (configuration not stated)	-5.13
Cc1cc(C)cc(OCC(=O)NNC(=O)c2ccccn2)c1	94.7
COc1ccc(CCNC(=O)Cn2nc([N+](=O)[O-])c(Br)c2C)cc1OC	1.63
O=C(CNC(=O)c1ccccc1C(=O)O)c1ccccc1	-12.4
O=C(COc1cc(Cl)ccc1Cl)Nc1nnc(C2CC2)s1	8.95
COc1cccc2cc(C(=O)NCc3ccccc3Br)c(=O)oc12	3.49
COc1ccc(/C=C(/NC(=O)c2ccc(Br)cc2)C(=O)N2CCOCC2)cc1	8.51
